The test system of this assay is L1210 leukemia ip in BDF1 mice, survival T/C. Description: NCI In Vivo Anticancer Drug Screen. Data for tumor model L1210 Leukemia (intraperitoneal) in B6D2F1 (BDF1) mice. To be noted: higher = longer survival.

Toxic doses and inconclusive results are not listed. For part of its entries the source gives two or more results. This list holds those alone. There may be further records. The values listed for one entry differ for a reason that is not stated; dose, time, organism, isomer or construct need not be as stated for each record.

Consider `COc1cccc2c1C(=O)c1c(O)c3c(c(O)c1C2=O)CC(O)(C(=O)CO)CC3OC1CC(N)C(O)C(C)O1` (centres undefined), for which the T/C (endpoint: median survival time, dose: 6.6 mg/kg/injection, schedule: Q01DX005 (ip), vehicle: water) was 121 % of control and 155 % of control; the T/C (endpoint: median survival time, dose: 19.0 mg/kg/injection, schedule: Q04DX003 (ip), vehicle: water) was 115 % of control and 150 % of control.

As for `O=S(=O)(CCl)OCCCCOS(=O)(=O)CCl`, under “endpoint: mean survival time, dose: 89.0 mg/kg/injection, schedule: Q01DX001 (ip), vehicle: saline”, the T/C is reported as 104 % of control, 107 % of control, 151 % of control.

On to `Cc1ccc(C(=O)Nc2ncn(C3CC(O)C(CO)O3)c(=O)n2)cc1` (centres undefined), for which the T/C (endpoint: mean survival time, dose: 50.0 mg/kg/injection, schedule: Q04DX003 (ip), vehicle: saline with Tween-80) was 108 % of control and 181 % of control.

The values above are taken from PubChem BioAssay AID248 (DTP/NCI, 2004).
